This list was built around the results that the source calls inconclusive (neither active nor inactive); the mix of calls is not that of the screen. No potency is given beside an inconclusive call; the fits are too rough. The source made the active and inactive calls. Calls come from the whole dose curve; as a rule, active = well fitted curve in the direction sought with a large enough effect; inconclusive = small, poorly fitted or top-dose-only effect, or another doubt; inactive = no such curve, though single readings can be large; an effect the other way counts as inactive or inconclusive.
Assay: qHTS assay to identify small molecule inhibitors of chordoma cells - UCH-1 (AID 1259355); note: nearly all actives have a fitted effect of over 55% in size; for activity, negative = inhibition: % is set by controls: 0 for no effect and ±100 for the full control effect
Conditions: UCH-1 chordoma viability, CellTiter-Glo, 48 h, combination, with auranofin plus four topoisomerase inhibitors; series mostly up to 46.1 µM; activity, negative = inhibition: at the top concentration
Summary of the method: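 Cells (800/well) were seeded and left overnight at 37 C, 5% CO2, then treated with drugs at 15 concentrations plus a combination mix of auranofin, camptothecin, doxorubicin, rubitecan and topotecan. Viability after 48hr was read by CellTiter-Glo luminescence.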
With CNC[C@@H](O)[C@@H](O)[C@H](O)[C@H](O)CO the “activity, negative = inhibition” value was inactive: -22.1%. With CN1CCN2c3ccccc3Cc3ccccc3C2C1 (stereo not given) the “activity, negative = inhibition” value was inactive: 16.7%. In the case of Clc1ccc(COC(Cn2ccnc2)c2ccc(Cl)cc2Cl)c(Cl)c1 (stereo not given), the Potency is reported as inconclusive [cytotoxic, full curve, poor fit]. With CCCc1nn(C)c2c(=O)[nH]c(-c3cc(S(=O)(=O)N4CCN(C)CC4)ccc3OCC)nc12 the Potency was inconclusive [cytotoxic, full curve, poor fit].

Assay: Identifying Small Molecule Inhibitors of Pancreatic Cancer Stem Cells (A2780, Spheroid) (AID 1259357);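 note: spheroids pre-formed over 14 days in stem cell medium on hydrogel; compound exposure lasted 48 h before the ATP luminescence read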;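 for viability (percent of control): 100% = DMSO treated cells and 0% = wells without cells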
Conditions: Potency: A2780 spheroid viability; viability (percent of control): at 46.1 µM (top of the series)
Summary of the method: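 Spheroids grown 14 days in stem cell media on nonadherent hydrogel before screening; cells attached 4 h, then compound exposure 48 h at 37C, 5% CO2. CellTiter-Glo luminescence normalized to DMSO (no inhibition) and no-cell wells (full inhibition).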
With O=C(O)c1ccc(O)c2ncc(N3CCOCC3)cc12 the viability (percent of control) was inconclusive: 143%. In the case of O=C(NOC[C@H](O)CO)c1ccc(F)c(F)c1Nc1ccc(I)cc1F, the viability (percent of control) is reported as inconclusive: 106%. In the case of COc1c(Cl)cc2c([nH]c3cnccc32)c1NC(=O)c1cccnc1C, the Potency is reported as inconclusive [rising, full curve, poor fit]. In the case of CCCCN1CCC(CNC(=O)c2c3n(c4ccccc24)CCCO3)CC1, the Potency is reported as inconclusive [rising, full curve, poor fit]. In the case of Cc1cccc(Nc2nc(N[C@@H]3CCCC[C@H]3N)ncc2C(N)=O)c1, the “viability (percent of control)” value is reported as inactive: 66.4%. For CN(C)C(=O)c1ccc(S(=O)(=O)c2ccc(NC(=O)[C@@](C)(O)C(F)(F)F)c(Cl)c2)cc1, the Potency was inconclusive [cytotoxic, single point]. For CN(C(=O)c1ccc(F)cc1C(F)(F)F)C1CCN(c2nnc(-c3ccnn3C)c3ccccc23)CC1, the Potency was inconclusive [rising, full curve, poor fit]. With COc1ccc(CCN2CCN(CCCc3ccccc3)CC2)cc1OC the Potency was inconclusive [cytotoxic, full curve, poor fit]. In the case of CCCCOCCOc1nc(-c2ccc(C(=O)O)c(F)c2)sc1C, the “viability (percent of control)” value is reported as inactive: 112%. With CCCCCCCc1ccc(CCc2cccc(O)c2C(=O)O)cc1 the “viability (percent of control)” value was inactive: 135%. In the case of NC(=O)Nc1cc(-c2cccc(F)c2)sc1C(=O)N[C@H]1CCCNC1, the Potency is reported as active: 18.7 µM. With C=CC(=O)Nc1cc2c(Nc3ccc(F)c(Cl)c3)ncnc2cc1OCCCN1CCOCC1 the Potency was active: 23.5 µM. For N#CC[C@H](C1CCCC1)n1cc(-c2ncnc3[nH]ccc23)cn1, the Potency was inconclusive [cytotoxic, single point]. For OCCn1cc(-c2ccc3c(c2)CCC3=NO)c(-c2ccncc2)n1, the Potency was inconclusive [cytotoxic, partial curve, poor fit]. With Cc1c(C(=O)Nc2ccc(N3C[C@@H](C)O[C@@H](C)C3)nc2)cccc1-c1ccc(OC(F)(F)F)cc1 the “viability (percent of control)” value was inactive: 51.8%. In the case of CCCc1nn(C)c2c(=O)[nH]c(-c3cc(S(=O)(=O)N4CCN(C)CC4)ccc3OCC)nc12, the viability (percent of control) is reported as inconclusive: 92.8%.

Assay: Identifying Small Molecule Inhibitors of Pancreatic Cancer Stem Cells (SN12C, Adherent) (AID 1259358);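 note: cell survival measured after 48 h of compound exposure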
Conditions: viability/growth inhibition; series mostly up to 46.1 µM; viability (percent of control): at the top concentration
Summary of the method: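 Endpoint: ATP-based luminescence, 48 h drug exposure. Bortezomib at 9.2 uM final as full-kill control; DMSO vehicle as negative control; activity normalized between vehicle and cell-free wells.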
For O=C(NOC[C@H](O)CO)c1ccc(F)c(F)c1Nc1ccc(I)cc1F, the Potency was active: 9.35 µM. With CCCCN1CCC(CNC(=O)c2c3n(c4ccccc24)CCCO3)CC1 the “viability (percent of control)” value was inactive: 112%. With CN(C(=O)c1ccc(F)cc1C(F)(F)F)C1CCN(c2nnc(-c3ccnn3C)c3ccccc23)CC1 the “viability (percent of control)” value was inactive: 92.5%. With COc1ccc(CCN2CCN(CCCc3ccccc3)CC2)cc1OC the Potency was inconclusive [cytotoxic, partial curve, poor fit]. In the case of NC(=O)Nc1cc(-c2cccc(F)c2)sc1C(=O)N[C@H]1CCCNC1, the Potency is reported as active: 8.33 µM. With C=CC(=O)Nc1cc2c(Nc3ccc(F)c(Cl)c3)ncnc2cc1OCCCN1CCOCC1 the Potency was active: 23.5 µM. In the case of N#CC[C@H](C1CCCC1)n1cc(-c2ncnc3[nH]ccc23)cn1, the Potency is reported as inconclusive [cytotoxic, partial curve, poor fit]. In the case of OCCn1cc(-c2ccc3c(c2)CCC3=NO)c(-c2ccncc2)n1, the “viability (percent of control)” value is reported as inactive: 95.8%. In the case of CCCc1nn(C)c2c(=O)[nH]c(-c3cc(S(=O)(=O)N4CCN(C)CC4)ccc3OCC)nc12, the “viability (percent of control)” value is reported as inactive: 115%.

Assay: Identifying Small Molecule Inhibitors of Pancreatic Cancer Stem Cells (Panc1, Spheroid) (AID 1259359);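 note: compound exposure lasted 48 h before reading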
Conditions: Panc1 spheroid cancer stem cell viability; viability, % of control: at 46.1 µM (top of the series) unless noted
Summary of the method: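 After a 4 h attachment period, compounds were pinned into wells and cultures held 48 h under standard incubator conditions. Viability was then measured as CellTiter-Glo luminescence following 10 min at room temperature.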
For O=C(O)c1ccc(O)c2ncc(N3CCOCC3)cc12, the Potency was inconclusive [cytotoxic, single point]. For O=C(NOC[C@H](O)CO)c1ccc(F)c(F)c1Nc1ccc(I)cc1F, the Potency was inconclusive [cytotoxic, partial curve, poor fit]. For COc1c(Cl)cc2c([nH]c3cnccc32)c1NC(=O)c1cccnc1C, the Potency was inconclusive [cytotoxic, partial curve, poor fit]. With CCCCN1CCC(CNC(=O)c2c3n(c4ccccc24)CCCO3)CC1 the Potency was inconclusive [cytotoxic, full curve, poor fit]. With Cc1cccc(Nc2nc(N[C@@H]3CCCC[C@H]3N)ncc2C(N)=O)c1 the Potency was inconclusive [cytotoxic, partial curve]. In the case of CN(C)C(=O)c1ccc(S(=O)(=O)c2ccc(NC(=O)[C@@](C)(O)C(F)(F)F)c(Cl)c2)cc1, the viability, % of control is reported as inconclusive: 128%. With CN(C(=O)c1ccc(F)cc1C(F)(F)F)C1CCN(c2nnc(-c3ccnn3C)c3ccccc23)CC1 the viability, % of control was inconclusive: 108%. For COc1ccc(CCN2CCN(CCCc3ccccc3)CC2)cc1OC, the Potency was inconclusive [cytotoxic, full curve, poor fit]. In the case of CCCCOCCOc1nc(-c2ccc(C(=O)O)c(F)c2)sc1C, the viability, % of control is reported as inconclusive: 124%. For CCCCCCCc1ccc(CCc2cccc(O)c2C(=O)O)cc1, the Potency was inconclusive [rising, full curve, poor fit]. For NC(=O)Nc1cc(-c2cccc(F)c2)sc1C(=O)N[C@H]1CCCNC1, the Potency was inconclusive [cytotoxic, partial curve, poor fit]. With C=CC(=O)Nc1cc2c(Nc3ccc(F)c(Cl)c3)ncnc2cc1OCCCN1CCOCC1 the Potency was inconclusive [cytotoxic, single point]. For N#CC[C@H](C1CCCC1)n1cc(-c2ncnc3[nH]ccc23)cn1, the viability, % of control was inconclusive: 114%. In the case of OCCn1cc(-c2ccc3c(c2)CCC3=NO)c(-c2ccncc2)n1, the viability, % of control is reported as inconclusive: 90.1%. For Cc1c(C(=O)Nc2ccc(N3C[C@@H](C)O[C@@H](C)C3)nc2)cccc1-c1ccc(OC(F)(F)F)cc1, the Potency was inconclusive [cytotoxic, partial curve, poor fit]. In the case of CCCc1nn(C)c2c(=O)[nH]c(-c3cc(S(=O)(=O)N4CCN(C)CC4)ccc3OCC)nc12, the Potency is reported as inconclusive [cytotoxic, full curve, poor fit].
Potency is the fitted concentration of half-maximal effect; tags give direction and shape of the fitted curve.
